Source: the supplement of paper PMC11417369
± gives the standard deviation of the averaged measurements. The list shows a part of the results.

system: PfAP2-G AP2 domain (GST-tagged); test: gcPBM binding intensity (ln(normalized median fluorescence intensity)); higher = stronger DNA binding
Method in brief: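 Each value is the highest Masliner-normalised natural-log median intensity across replicate spots of either orientation of a probe. The probes were primer-extended double-stranded 36-bp intergenic genomic sequences on an Agilent 4 × 180k array, alongside negative controls, exposed for 1 h to GST-tagged P. falciparum DNA-binding domains expressed in E. coli. Bound protein was picked up with Alexa488 anti-GST antibody and scanned at 488 nm.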

Sequence | gcPBM binding intensity (ln)
AGAAACGTAAGTTATACACACATGTCAAAAGAAAAA [CACACA_site312] | 9.985 ± 0.092
TATAAAAATGTGTATGTACACACTTTATTTTTAATA [CACACA_site2532] | 11.4 ± 0.84
AGTATTTCCATATGTACATGCAAAAGGAAAGATATA [TGCATGCA_site850] | 11.1 ± 0.62
TATTTTTCCCTATGCACACACACCGTATATATAATA [CACACA_site4758] | 10.3 ± 0.21
AAATATAAAAATAGCACACATATATACATATATATA [CACACA_site56] | 9.84 ± 0.11
TGTCCAATTTTTTATCGTACATAATATATAAATAAA [XGTACX_site1705] | 11.3 ± 0.69
TTGTTAATATATATATGTACTTATTTATTTATTTAT [XGTACX_site2274] | 11.4 ± 0.93
ATCCATCTTTTATATAGTACTTTATAATATATATAT [XGTACX_site8064] | 10.9 ± 0.44
CAATGTTAATATAATACACACAATATGTATTTGTCT [CACACA_site1162] | 9.94 ± 0.099
GAAAAAAAAAAAAAAAGTACATGTCATAAATTGTAT [XGTACX_site1461] | 11.5 ± 1.1
TTTTCCTTAACACACGTTTATATAAAAAATTAAAAT [XGTACX_negctrl_site115] | 10 ± 0.33
TTTGAATTTTTTAACACACACATGTCTGGATATATA [CACACA_site1645] | 10.1 ± 0.28
TTATAGTATTTATAATGTACAAATATATTTTATTTT [XGTACX_site5015] | 10.6 ± 0.42
ATATTTATATTTTTTTGTACATATATAATTTTATAA [XGTACX_site4151] | 10.9 ± 0.44
ATATATATTTATATATGTACATATTAATATATATAT [XGTACX_site1144] | 11.2 ± 0.8
ATATATATATTTATAGTGCATTTATATTAAAATATC [GTGCAC_site9818] | 9.88 ± 0.38
TCAAATAGAAAATAAAGTACTTAATTTTTAGGAACA [XGTACX_site1446] | 11.3 ± 0.85
TTGAATATTTAAAAACGTACATAAAATTATTTGATT [XGTACX_site5422] | 11.3 ± 0.81
ATAAAAAAATCAGACACACACACGTAAACCCATACA [CACACA_site2773] | 10.4 ± 0.28
ACATATTTATATATGTGTACATAAATATTCTTTTAA [XGTACX_site8238] | 11.4 ± 1
ATATTAAGGTTTATATTTTAACTTATTATTTTATTC [CACACA_negctrl_site795] | 9.55 ± 0.15
GTAAAAAGATAATGAAGTACATTTTTTCATTTTTAT [XGTACX_site5579] | 11.1 ± 0.79
AAAAAAAAAAAACACACACACACACCCATATACATA [CACACA_site2664] | 10.2 ± 0.16

Sequence | gcPBM binding intensity (ln)
CATATCCTTACGAACTGTACAATATTAAGAATAAAA [XGTACX_site1651] | 10.9 ± 0.41
ATATATTCAATTCATACACACACAATTTAAGAATGA [CACACA_site9289] | 10 ± 0.11
ATTTATTTTTTTATCACACATTTGTGAAATGTGCAT [CACACA_site5869] | 9.93 ± 0.13
GTCTATAACTATTGCGCACACTTTAAAAAAAAAGAA [CACACA_site1003] | 10.7 ± 0.6
TAGAAGCATTGACACACACACATACATACACATACA [CACACA_site6802] | 10.2 ± 0.26
TATATATATATATAATGTACATAATAATAATACATC [XGTACX_site5587] | 11 ± 0.59
CTAGACTTTATTAATTGTACATATGTGTATTTTATA [XGTACX_site480] | 10.9 ± 0.61
AATACAGACAGACACACACACAAAATAAAATACAAA [CACACA_site245] | 10.2 ± 0.38
TCTTTTTTTTGAATTTGTACATAAGACAATAAAAAA [XGTACX_site4682] | 10.9 ± 0.59
CATCATAGAGTGGAGTGTACAAATATGTCAACATAT [XGTACX_site2264] | 10.9 ± 0.42
TTTTCCTTTACATAATGTACACAAAAAAAAAAAAAA [XGTACX_site716] | 11.3 ± 0.97
GTTACTGCATACATAACACACATATTCAAAACCCAT [CACACA_site5856] | 10.12 ± 0.042
TTTACACCCTAAAAATGTACAAGAAAGATTATATTA [XGTACX_site1102] | 10.8 ± 0.48
ATACTAAAGAAACACACACACATATATATATAGAAT [CACACA_site100] | 9.955 ± 0.064
AAAGCTTACATATACACACATACATAAATTCATAAA [CACACA_site2469] | 9.94 ± 0.12
TTTTTTTATTATACTAGTACATATATATACAGCACA [XGTACX_site3464] | 11.1 ± 0.8
AAAAAAAAAAAAGGAACACACAAGTAACAATAAATT [CACACA_site2481] | 10.2 ± 0.13
ATTTTTTTCCTAATGGTGCGAATAAATATCCATACC | 10.2 ± 0.18
TTAACAGTAAAACACAGTACATATATACTTAAAACA [XGTACX_site1930] | 10.7 ± 0.47
TAATCTCATAAAACCGCACACACATAAAATTTGCAT [CACACA_site3890] | 10 ± 0.042
TTTTTAATAATCTCTCAAAATGTTCTTATATTTTAC [CACACA_negctrl_site1691] | 9.74 ± 0.13
TTGTTTGATATCTTTGTCACGAAAAAAATATATATA [GTGCAC_negctrl_site54] | 10.1 ± 0.21
TAAGGATAAAATAAATGTACATATGTAAAATTATTA [XGTACX_site4170] | 10.9 ± 0.58

Sequence | gcPBM binding intensity (ln)
GAGAAATGGGGACACACACACATATTATAGATATAT [CACACA_site6829] | 11.5 ± 0.83
TAAGAAAAAAGTAAATGTACAGAGAAAATTATCTAT [XGTACX_site7374] | 10.8 ± 0.47
ATTTATTACAAATGAATGCACTATATCTTAATTTTG | 9.88 ± 0.014
ATATATTTCCTGAGGAGTACTATGAAAGACAAAAAA [XGTACX_site5628] | 11.4 ± 0.87
ATAATTTTGATTATCACACATATATATATATATATG [CACACA_site5882] | 10.04 ± 0.085
TAATTTAATAATTAGACACACATGTGGAAAATAAAA [CACACA_site5401] | 10.3 ± 0.16
TTTGTCATTTTATTATGTACTCAGCATATAGGGGGG [XGTACX_site505] | 11.7 ± 0.66
GATTTTTAAAATATCACACATAAAAAAAAAAAAAAA [CACACA_site5516] | 9.88 ± 0.71
AAAAAAATTCTGACTTGTACATATAAAATTTACAAA [XGTACX_site4408] | 11 ± 0.84
ACATATATATAAAGGTGTACACATATATATATATAT [XGTACX_site4779] | 11.7 ± 0.76
TTCCTACTATTCAAACGTACAAAATATTTAAATAAT [XGTACX_site700] | 11.1 ± 0.74
AAAACAAATGCTTAAAGTACTTATTATTTTTCTTTT [XGTACX_site6324] | 11.3 ± 0.52
TATTTCTTATTTATTTTTTAAGGAAATTAAAGATTT [CACACA_negctrl_site258] | 9.77 ± 0.085
CAAAATAAAAAATTCACACACATATATATATATATA [CACACA_site2088] | 10.1 ± 0.59
TATTATAAAACATTATGTACATATTCTGAAAAATAG [XGTACX_site6577] | 11.3 ± 0.61
ATAATATAATATAAAACACACATATGTACCTTCTAA [CACACA_site2761] | 10.9 ± 0.57
CAAGTTCAAAATACAAGGAAGAAACAAAACTTGGCG [GTGCAC_negctrl_site600] | 10.13 ± 0.042
AAAAAAAAAAAAAAAAGTACAAATCTTTATTTATTA [XGTACX_site3305] | 11.2 ± 0.6
TAAAAATATCTGTATACACACATATATATATATATA [CACACA_site6042] | 10.2 ± 0.4
ATATAAATCATTGGTTGTACATATAATATTTTATAA [XGTACX_site925] | 11.2 ± 0.76
TATTTTTACCCATAAAGTACACATAAATATAAAATA [XGTACX_site177] | 11.5 ± 1
TATATATCTATATATTGTACATATGTTTGTATGTGT [XGTACX_site7420] | 10.9 ± 0.57
TATATATTAGAAGATAGTACATATATATTTATTAAT [XGTACX_site1011] | 10.7 ± 0.36

Sequence | gcPBM binding intensity (ln)
GCTCAATGTTTTACATGTACATATATATATATATAT [XGTACX_site8210] | 11 ± 0.57
TGGTGATCAAAATATACATGCATATGTTCTGTTATT [TGCATGCA_site614] | 9.73 ± 0.13
TTAATATAACTTTTTGCACACTTAATTTTTTTTTTT [CACACA_site3364] | 9.925 ± 0.078
TTATATAAAACATTAACACACAAAGAAAAAAAATTA [CACACA_site1793] | 10 ± 0.042
TATGATATCTATAATACACACATATACATAAGATCT [CACACA_site6652] | 10
CAGAAATATTAATGCTGTACGGAATACATATATTTT [XGTACX_site539] | 10.9 ± 0.6
ATTTTAATGGGACATGCATGGGACAAACTACAAATT [TGCATGCA_site853] | 10.6 ± 0.24
AGAATATTTATATGATGTACTTATATATATATATAT [XGTACX_site3021] | 11.2 ± 0.71
TATATATTAAAACACACACACATATATATATATATA [CACACA_site3787] | 9.98 ± 0.23
TGAACCAGATTTAGAAGTACTAAATATTACATACAT [XGTACX_site2437] | 11 ± 0.67
TGTTGCAAAACAAAAAAAAAAAAAAAAAATAATAAT [CACACA_negctrl_site1642] | 9.64 ± 0.19
AATAAAAACTACATGTGTACATAATAAATACATATA [XGTACX_site755] | 11.3 ± 0.94
TTTTTTCTTTTCTTTTTATTTTATTTTGTTTTATTT [CACACA_negctrl_site799] | 9.71 ± 0.11
TAAAAATATTTAAACTGTACTATTTTATGTTAAATG [XGTACX_site6620] | 11.3 ± 0.8
ATAATCCAAAAAAATCAAATAAAATAAAATAAAATA [CACACA_negctrl_site449] | 9.415 ± 0.078
TTTATAATTTTAAAATGTACAAGGAGGAAAAATTCT [XGTACX_site422] | 10.9 ± 0.63
TATATAAATATTCGTAGTACAATACAATTATAAGTA [XGTACX_site3068] | 11.2 ± 0.88
TTATATTTTATATTTACACACATTTATATTTATAAA [CACACA_site203] | 9.86 ± 0.085
CAAATGGTAAATGAAAGTACAAATTGTTTTGATTAA [XGTACX_site1536] | 10.8 ± 0.4
ATATACATATTCTTGTGTACATAAAAATTTATATAT [XGTACX_site8726] | 11.4 ± 0.73
